This data set deals with the molecule itself. Kind of data set: SEC; arrestin alone, without peptide; Superdex 200 16/600, 10 mM Hepes, 150 mM KCl, pH 7.5, 0.5 ml/min.

B1: wild type visual arrestin-1 (natural protein)
chain: not shown
notes: bovine visual arrestin-1 (arr-1), wild type; also called arr-1; wild type arr-1; source: Saccharomyces cerevisiae F11 alpha (pYEX-BX vector), purified (SEC on Superdex 200)
In the case of B1, the “stoichiometry N” value is 2.

The record behind these values is article PMC7331637, “Phosphorylated peptide of G protein-coupled receptor induces dimerization in activated arrestin” (Scientific Reports, 2020).
